# Results are given in words; binding and its absence hold for the method and conditions named. For some assays here: In cells and extracts the contact can be indirect. Some entries that bind do so weakly or less than the wild type.
# By UniProt entry, the sequences of proteins in these tests, tags left out. Residues count along the entry.
# UniProt P25799, residues 1-431: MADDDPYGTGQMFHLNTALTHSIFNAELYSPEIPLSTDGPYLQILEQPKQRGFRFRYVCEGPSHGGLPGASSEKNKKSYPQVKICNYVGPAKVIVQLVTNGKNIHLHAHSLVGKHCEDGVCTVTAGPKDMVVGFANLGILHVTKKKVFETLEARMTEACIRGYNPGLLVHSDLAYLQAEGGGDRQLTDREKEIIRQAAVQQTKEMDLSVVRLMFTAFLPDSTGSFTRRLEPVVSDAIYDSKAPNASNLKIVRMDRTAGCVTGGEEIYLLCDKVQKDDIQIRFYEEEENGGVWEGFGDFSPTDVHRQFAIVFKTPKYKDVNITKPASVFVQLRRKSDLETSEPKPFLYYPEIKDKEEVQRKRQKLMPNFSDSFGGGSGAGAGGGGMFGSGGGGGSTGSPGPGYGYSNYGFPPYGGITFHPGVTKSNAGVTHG
# UniProt Q04207: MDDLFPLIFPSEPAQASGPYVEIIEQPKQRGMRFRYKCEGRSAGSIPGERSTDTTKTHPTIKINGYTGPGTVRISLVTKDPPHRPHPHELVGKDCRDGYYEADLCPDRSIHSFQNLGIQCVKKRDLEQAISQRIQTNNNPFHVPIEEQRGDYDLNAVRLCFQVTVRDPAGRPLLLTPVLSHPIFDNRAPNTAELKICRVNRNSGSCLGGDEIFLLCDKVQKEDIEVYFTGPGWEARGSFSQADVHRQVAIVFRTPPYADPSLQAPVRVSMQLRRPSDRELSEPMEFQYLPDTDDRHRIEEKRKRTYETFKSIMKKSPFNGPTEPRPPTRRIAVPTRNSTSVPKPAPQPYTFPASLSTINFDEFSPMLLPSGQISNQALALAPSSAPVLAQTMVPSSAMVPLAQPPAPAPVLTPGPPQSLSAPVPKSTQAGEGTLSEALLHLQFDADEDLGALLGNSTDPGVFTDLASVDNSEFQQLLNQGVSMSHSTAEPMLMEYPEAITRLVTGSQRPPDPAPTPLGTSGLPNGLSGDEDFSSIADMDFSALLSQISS
# UniProt P19785: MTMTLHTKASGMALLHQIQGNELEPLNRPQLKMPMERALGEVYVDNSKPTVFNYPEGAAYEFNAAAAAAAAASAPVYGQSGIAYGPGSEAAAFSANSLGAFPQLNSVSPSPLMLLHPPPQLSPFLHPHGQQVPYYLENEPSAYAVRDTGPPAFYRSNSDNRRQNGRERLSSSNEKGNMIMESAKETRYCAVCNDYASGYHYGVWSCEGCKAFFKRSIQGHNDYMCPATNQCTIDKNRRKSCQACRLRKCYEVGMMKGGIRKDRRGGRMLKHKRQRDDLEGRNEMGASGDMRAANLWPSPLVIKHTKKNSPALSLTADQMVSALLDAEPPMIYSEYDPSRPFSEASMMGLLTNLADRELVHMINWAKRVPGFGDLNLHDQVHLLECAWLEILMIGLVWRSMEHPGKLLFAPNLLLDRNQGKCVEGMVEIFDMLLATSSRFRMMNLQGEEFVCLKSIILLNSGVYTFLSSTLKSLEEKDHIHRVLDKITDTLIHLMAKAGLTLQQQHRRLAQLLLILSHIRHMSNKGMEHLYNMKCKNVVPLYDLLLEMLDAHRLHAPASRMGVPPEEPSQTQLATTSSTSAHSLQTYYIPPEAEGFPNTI
# UniProt P03372: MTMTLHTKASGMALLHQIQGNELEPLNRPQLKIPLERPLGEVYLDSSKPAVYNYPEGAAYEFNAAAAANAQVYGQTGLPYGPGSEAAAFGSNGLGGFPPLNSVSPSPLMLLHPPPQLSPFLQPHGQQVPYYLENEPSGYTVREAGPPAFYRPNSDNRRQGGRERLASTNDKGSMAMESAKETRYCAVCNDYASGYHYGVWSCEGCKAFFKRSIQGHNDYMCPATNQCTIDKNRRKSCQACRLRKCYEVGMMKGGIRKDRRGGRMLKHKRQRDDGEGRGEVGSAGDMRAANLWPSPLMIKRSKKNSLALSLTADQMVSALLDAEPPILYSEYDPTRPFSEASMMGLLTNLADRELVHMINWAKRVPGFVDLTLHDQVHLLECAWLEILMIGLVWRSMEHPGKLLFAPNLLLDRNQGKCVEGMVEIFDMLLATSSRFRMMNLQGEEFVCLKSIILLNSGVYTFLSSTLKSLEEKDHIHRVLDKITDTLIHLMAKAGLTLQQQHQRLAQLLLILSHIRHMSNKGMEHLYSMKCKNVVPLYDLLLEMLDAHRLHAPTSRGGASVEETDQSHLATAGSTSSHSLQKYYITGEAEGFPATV
# T1: MS-KIF18A, endogenous in MBA-15 cells (mouse (endogenous in MBA-15)) (UniProt Q91WD7)
# T1 sequence: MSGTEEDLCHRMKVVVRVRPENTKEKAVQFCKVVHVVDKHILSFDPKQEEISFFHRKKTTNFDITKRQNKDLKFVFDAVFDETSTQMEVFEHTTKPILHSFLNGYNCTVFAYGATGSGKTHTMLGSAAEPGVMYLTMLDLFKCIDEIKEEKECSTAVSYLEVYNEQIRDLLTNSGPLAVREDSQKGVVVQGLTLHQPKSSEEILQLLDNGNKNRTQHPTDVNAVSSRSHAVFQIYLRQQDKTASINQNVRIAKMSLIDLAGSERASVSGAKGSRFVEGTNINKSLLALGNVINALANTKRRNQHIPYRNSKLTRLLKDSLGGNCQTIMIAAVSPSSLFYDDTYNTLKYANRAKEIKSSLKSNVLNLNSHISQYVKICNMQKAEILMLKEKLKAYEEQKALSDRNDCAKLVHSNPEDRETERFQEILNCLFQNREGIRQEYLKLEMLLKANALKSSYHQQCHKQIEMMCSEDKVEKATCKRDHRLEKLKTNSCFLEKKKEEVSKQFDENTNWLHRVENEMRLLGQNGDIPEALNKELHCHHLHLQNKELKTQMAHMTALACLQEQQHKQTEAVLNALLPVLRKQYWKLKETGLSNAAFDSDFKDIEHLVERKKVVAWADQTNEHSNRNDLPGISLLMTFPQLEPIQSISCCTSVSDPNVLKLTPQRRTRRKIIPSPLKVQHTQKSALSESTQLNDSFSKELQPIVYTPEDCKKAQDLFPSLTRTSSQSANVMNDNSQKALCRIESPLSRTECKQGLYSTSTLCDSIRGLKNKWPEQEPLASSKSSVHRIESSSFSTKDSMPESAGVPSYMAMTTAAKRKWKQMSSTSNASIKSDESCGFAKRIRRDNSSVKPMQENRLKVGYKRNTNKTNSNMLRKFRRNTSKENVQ
# T2: full length MS-KIF18A, recombinant (UniProt Q8NI77)
# T2 sequence: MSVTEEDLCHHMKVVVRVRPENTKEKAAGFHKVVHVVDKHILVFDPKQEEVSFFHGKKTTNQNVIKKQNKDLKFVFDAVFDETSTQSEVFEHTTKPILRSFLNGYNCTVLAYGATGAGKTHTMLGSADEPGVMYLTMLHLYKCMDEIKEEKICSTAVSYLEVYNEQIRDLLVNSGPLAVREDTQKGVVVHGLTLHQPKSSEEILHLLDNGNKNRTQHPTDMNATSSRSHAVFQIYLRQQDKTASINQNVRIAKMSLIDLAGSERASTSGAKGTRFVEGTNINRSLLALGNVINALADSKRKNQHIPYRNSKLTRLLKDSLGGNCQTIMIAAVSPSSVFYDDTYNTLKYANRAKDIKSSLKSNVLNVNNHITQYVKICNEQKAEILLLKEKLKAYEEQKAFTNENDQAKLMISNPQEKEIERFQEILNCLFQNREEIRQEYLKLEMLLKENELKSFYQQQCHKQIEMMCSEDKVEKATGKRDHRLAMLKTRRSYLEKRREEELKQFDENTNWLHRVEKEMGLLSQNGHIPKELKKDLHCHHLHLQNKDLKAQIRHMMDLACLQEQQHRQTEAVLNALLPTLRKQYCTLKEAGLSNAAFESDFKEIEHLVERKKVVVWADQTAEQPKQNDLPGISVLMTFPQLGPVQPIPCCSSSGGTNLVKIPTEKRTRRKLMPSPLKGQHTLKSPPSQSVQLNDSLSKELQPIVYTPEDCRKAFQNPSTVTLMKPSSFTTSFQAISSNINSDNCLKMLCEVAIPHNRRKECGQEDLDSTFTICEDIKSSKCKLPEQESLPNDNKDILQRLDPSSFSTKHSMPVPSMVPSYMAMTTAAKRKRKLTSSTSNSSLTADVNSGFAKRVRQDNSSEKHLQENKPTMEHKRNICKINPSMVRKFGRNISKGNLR
# T3: truncated MS-KIF18A construct 1-635 aa, recombinant (UniProt Q8NI77)
# T3 sequence: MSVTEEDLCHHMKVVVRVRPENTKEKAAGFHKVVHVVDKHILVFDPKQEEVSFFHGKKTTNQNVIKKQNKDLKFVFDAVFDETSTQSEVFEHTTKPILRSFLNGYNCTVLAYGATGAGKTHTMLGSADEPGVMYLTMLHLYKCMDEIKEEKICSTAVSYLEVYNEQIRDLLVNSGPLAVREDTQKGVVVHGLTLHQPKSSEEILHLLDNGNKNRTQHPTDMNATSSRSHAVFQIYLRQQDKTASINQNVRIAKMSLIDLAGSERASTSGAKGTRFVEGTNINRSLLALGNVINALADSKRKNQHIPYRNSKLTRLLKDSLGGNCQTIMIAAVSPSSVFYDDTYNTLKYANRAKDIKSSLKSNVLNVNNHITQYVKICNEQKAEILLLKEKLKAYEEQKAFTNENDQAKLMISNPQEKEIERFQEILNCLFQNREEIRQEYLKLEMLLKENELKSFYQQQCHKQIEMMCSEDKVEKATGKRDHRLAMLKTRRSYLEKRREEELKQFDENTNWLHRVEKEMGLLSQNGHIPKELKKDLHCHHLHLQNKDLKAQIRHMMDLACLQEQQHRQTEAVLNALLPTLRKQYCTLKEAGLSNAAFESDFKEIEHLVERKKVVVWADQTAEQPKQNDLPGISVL
# T4: truncated MS-KIF18A construct 635-898 aa, recombinant (UniProt Q8NI77)
# T4 sequence: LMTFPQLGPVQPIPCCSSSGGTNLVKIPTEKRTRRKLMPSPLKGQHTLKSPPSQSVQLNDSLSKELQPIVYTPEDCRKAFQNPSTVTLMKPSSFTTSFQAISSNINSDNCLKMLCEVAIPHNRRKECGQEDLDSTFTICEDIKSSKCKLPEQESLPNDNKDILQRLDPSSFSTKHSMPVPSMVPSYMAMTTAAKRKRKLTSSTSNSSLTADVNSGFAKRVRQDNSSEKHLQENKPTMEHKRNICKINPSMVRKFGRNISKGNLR
# Experiments:
# [1] = molecular target: NF-κB p50 subunit, endogenous (mouse (endogenous in MBA-15)) (UniProt P25799); test: co-IP; cell lysates, IP with anti-p50 or anti-p65, western blot with anti-MS-KIF18A or anti-ERα
# [2] = molecular target: NF-κB p65 subunit, endogenous (mouse (endogenous in MBA-15)) (UniProt Q04207); test: as above
# [3] = molecular target: T1, MS-KIF18A, endogenous in MBA-15 cells (mouse (endogenous in MBA-15)); test: co-IP; cells fractionated to cytoplasm and nuclear/membrane extracts; IP with anti-MS-KIF18A, western blot with anti-ERα
# [4] = molecular target: T2, full length MS-KIF18A, recombinant; test: co-IP; called pull down: 0.25 µg of recombinant proteins with poly- or monoclonal anti-MS-KIF18A or anti-ERα and Protein-A sepharose beads overnight at 4°C; western blot; both purified
# [5] = molecular target: T3, truncated MS-KIF18A construct 1-635 aa, recombinant; test: as above
# [6] = molecular target: T4, truncated MS-KIF18A construct 635-898 aa, recombinant; test: as above
Molecule,binding [1],binding [2],binding [3],binding [4],binding [5],binding [6]
"estrogen receptor alpha, endogenous in MBA-15 cells (from UniProt P19785 1-599)",binds,binds,binds,–,–,–
recombinant estrogen receptor alpha (from UniProt P03372 1-595),–,–,–,binds,binds,binds
"MS-KIF18A, endogenous in MBA-15 cells (protein, UniProt Q91WD7 1-886) MSGTEEDLCHRMKVVVRVRPENTKEKAVQFCKVVHVVDKHILSFDPKQEEISFFHRKKTTNFDITKRQNKDLKFVFDAVFDETSTQMEVFEHTTKPILHSFLNGYNCTVFAYGATGSGKTHTMLGSAAEPGVMYLTMLDLFKCIDEIKEEKECSTAVSYLEVYNEQIRDLLTNSGPLAVREDSQKGVVVQGLTLHQPKSSEEILQLLDNGNKNRTQHPTDVNAVSSRSHAVFQIYLRQQDKTASINQNVRIAKMSLIDLAGSERASVSGAKGSRFVEGTNINKSLLALGNVINALANTKRRNQHIPYRNSKLTRLLKDSLGGNCQTIMIAAVSPSSLFYDDTYNTLKYANRAKEIKSSLKSNVLNLNSHISQYVKICNMQKAEILMLKEKLKAYEEQKALSDRNDCAKLVHSNPEDRETERFQEILNCLFQNREGIRQEYLKLEMLLKANALKSSYHQQCHKQIEMMCSEDKVEKATCKRDHRLEKLKTNSCFLEKKKEEVSKQFDENTNWLHRVENEMRLLGQNGDIPEALNKELHCHHLHLQNKELKTQMAHMTALACLQEQQHKQTEAVLNALLPVLRKQYWKLKETGLSNAAFDSDFKDIEHLVERKKVVAWADQTNEHSNRNDLPGISLLMTFPQLEPIQSISCCTSVSDPNVLKLTPQRRTRRKIIPSPLKVQHTQKSALSESTQLNDSFSKELQPIVYTPEDCKKAQDLFPSLTRTSSQSANVMNDNSQKALCRIESPLSRTECKQGLYSTSTLCDSIRGLKNKWPEQEPLASSKSSVHRIESSSFSTKDSMPESAGVPSYMAMTTAAKRKWKQMSSTSNASIKSDESCGFAKRIRRDNSSVKPMQENRLKVGYKRNTNKTNSNMLRKFRRNTSKENVQ",binds,no binding,–,–,–,–

# Source: publication PMC2712070
